Assay results: PubChem BioAssay AID258 (DTP/NCI, 2004)
Toxic doses and inconclusive results are not listed. Some entries of the source have several records that differ or are many. Only these are listed. The source may hold further records. The records of an entry are repeated measurements in other runs, samples, wells, individuals or studies.

Test system: CD2F1 mice, L1210 leukemia sc, survival T/C
Assay: NCI In Vivo Anticancer Drug Screen. Data for tumor model L1210 Leukemia (subcutaneous) in CD2F1 (CDF1) mice
Conditions: endpoint: median survival time, higher = longer survival
Experimental: The antitumor activity of compounds was measured in mice bearing transplantable tumors. Survival or tumor size were measured and the results are expressed as the measurement made in the treated group (T) divided by the measurement made in the vehicle treated control group (C). The tumor model used in this assay is L1210 Leukemia (subcutaneous) in CD2F1 (CDF1) mice

## N[C@@H](Cc1ccc(N(CCCl)CCCl)cc1)C(=O)O
dose: 8.0 mg/kg/injection, schedule: Q01DX009 (sc), vehicle: saline
  T/C: 105 % of control and 162 % of control
dose: 10.0 mg/kg/injection, schedule: Q01DX009 (ip), vehicle: saline
  T/C: 102 % of control and 161 % of control

## CN(Cc1cnc2nc(N)nc(N)c2n1)c1c(Cl)cc(C(=O)NC(CCC(=O)O)C(=O)O)cc1Cl (configuration not stated)
dose: 208.0 mg/kg/injection, schedule: Q01DX Z (oral), vehicle: other
  T/C: 118 % of control, 154 % of control, 165 % of control

## COc1ccc2[nH]c3ccc4cc[n+](CCN5CCC(C6CCN(CC[n+]7ccc8ccc9[nH]c%10ccc(OC)cc%10c9c8c7)CC6)CC5)cc4c3c2c1
dose: 25.0 mg/kg/injection, schedule: Q01DX009 (ip), vehicle: Klucel (hydroxypropylcellulose) (HPC)
  T/C: 117 % of control and 151 % of control

## CCOC(=O)C(CC(C)C)NC(=O)C(Cc1ccc(N(CCCl)CCCl)cc1)NC(C)=O (configuration not stated)
dose: 256.0 mg/kg/injection, schedule: Q01DX009 (sc), vehicle: Klucel (hydroxypropylcellulose) (HPC)
  T/C: 117 % of control and 162 % of control

## S=c1nc[nH]c2nc[nH]c12
dose: 108.0 mg/kg/injection, schedule: Q01DX Z (sc), vehicle: methylcellulose (MC)
  T/C: 118 % of control and 150 % of control

## Cc1ccc(NCCN(C)C)c2c(=O)c3cc(O)ccc3sc12
dose: 100.0 mg/kg/injection, schedule: Q01DX009 (ip), vehicle: Klucel (hydroxypropylcellulose) (HPC)
  T/C: 94 % of control and 172 % of control

## O=NNc1cnccn1
dose: 40.0 mg/kg/injection, schedule: Q01DX009 (ip), vehicle: water
  T/C: 100 % of control and 179 % of control

## C1CN1c1nc(N2CC2)nc(N2CC2)n1
dose: 0.8 mg/kg/injection, schedule: Q01DX009 (sc), vehicle: saline
  T/C: 107 % of control and 164 % of control

## O=NN(CCCl)C(=O)NC1CCCCC1
dose: 14.0 mg/kg/injection, schedule: Q01DX Z (sc), vehicle: carboxymethylcellulose (CMC)
  T/C: 112 % of control, 277 % of control, 481 % of control

## O=c1[nH]cc(F)c(=O)[nH]1
dose: 20.0 mg/kg/injection, schedule: Q01DX009 (ip), vehicle: saline
  T/C: 116 % of control and 153 % of control

## CN(C)/N=N/c1nc[nH]c1C(N)=O
dose: 75.0 mg/kg/injection, schedule: Q01DX009 (sc), vehicle: saline
  T/C: 109 % of control and 156 % of control
